Measurements published in patent publication US11807625B2, “Capsid inhibitors for the prevention of HIV” (Gilead Sciences, Inc., priority 2019, dated 2023).
“And” between values parts separate entries of the source, which are not always exact repeats. Equal entries are not always repeated. The source gives many values for each of these; only a part stands here.

Test: PK of compound of Formula (Ia) after single subcutaneous dose of solution formulations in Wistar Han rats
Assay type: in vivo
Settings: individual rats, SC 50 mg/kg
Procedure: Formulations containing the compound of Formula (Ia), or a pharmaceutically acceptable salt thereof, were prepared as solutions and optionally administered subcutaneously or intramuscularly to rats, rabbits, and/or dogs.
A solution of about 400 mg/mL of the compound of Formula (Ia) having 19.14 w/w % water, 40.66 w/w % PEG 300, 35.20 w/w % of a sodium salt of a compound of Formula (Ia), and 5.00% ethanol was prepared. The solution was administered subcutaneously to male Wistar Han rats at a dose level of about 50 mg/kg and dose volume of 0.125 mL/kg and the pharmacokinetic (PK) profile was determined.
A solution of about 500 mg/mL of the compound of Formula (Ia) having 16.64 w/w % water, 35.36 w/w % PEG 300, 43.00 w/w % of a sodium salt of a compound of Formula (Ia), and 5.00% ethanol was prepared. The solution was administered subcutaneously to male Wistar Han rats at a dose level of about 50 mg/kg and dose volume of 0.1 mL/kg and the pharmacokinetic (PK) profile was determined.
A solution of about 400 mg/mL of the compound of Formula (Ia) having 17.00 w/w % water, 36.40 w/w % PEG 300, 35.20 w/w % of a sodium salt of a compound of Formula (Ia), 5.00 w/w % ethanol, and 6.40 w/w % poloxamer 188 was prepared. The solution was administered subcutaneously to male beagle dogs at a dose level of about 12 mg/kg and male Wistar Han rats at a dose level of about 50 mg/kg. The pharmacokinetic profiles were determined, and the results for dogs are summarized in Table and Table, while the results for rats are summarized in Table and Table below.
A solution of about 500 mg/mL of the compound of Formula (Ia) having 14.06 w/w % water, 30.12 w/w % PEG 300, […] of a sodium salt of a compound of Formula (Ia), 5.00 w/w % ethanol, and 6.40 w/w % poloxamer 188 was prepared. The solution was administered subcutaneously to male beagle dogs at a dose level of about 12 mg/kg and male Wistar Han rats at a dose level of about 50 mg/kg. The pharmacokinetic profiles were determined, and the results for dogs are summarized in Table and Table, while the results for rats are summarized in Table and Table below.
A solution of about 300 mg/mL of the compound of Formula (Ia) having 23.33 w/w % water, 48.99 w/w % PEG 300, 26.47 w/w % of a sodium salt of a compound of Formula (Ia), and 1.21 w/w % poloxamer 188 was prepared. The solution was administered subcutaneously to male beagle dogs at a dose level of about 6 mg/kg and male Wistar Han rats at a dose level of about 50 mg/kg. The pharmacokinetic profiles were determined, and the results for dogs are summarized in Table and Table, while the results for rats are summarized in Table and Table below.
A solution of about 400 mg/mL of the compound of Formula (Ia) having 18.80 w/w % water, 40.25 w/w % PEG 300, 34.38 w/w % of a sodium salt of a compound of Formula (Ia), 5.00 w/w % ethanol, and 1.57 w/w % poloxamer 188 was prepared. The solution was administered subcutaneously to male beagle dogs at a dose level of about 12 mg/kg and male Wistar Han rats at a dose level of about 50 mg/kg. The pharmacokinetic profiles were determined, and the results for dogs are summarized in Table and Table, while the results for rats are summarized in Table and Table below.
A solution of about 500 mg/mL of the compound of Formula (Ia) having 16.29 w/w % water, 34.88 w/w % PEG 300, 41.92 w/w % of a sodium salt of a compound of Formula (Ia), 5.00 w/w % ethanol, and 1.91 w/w % poloxamer 188 was prepared. The solution was administered subcutaneously to male beagle dogs at a dose level of about 12 mg/kg and male Wistar Han rats at a dose level of about 50 mg/kg. The pharmacokinetic profiles were determined, and the results for dogs are summarized in Table and Table, while the results for rats are summarized in Table and Table below.
A solution of about 400 mg/mL of the compound of Formula (Ia) having 20.90 w/w % water, 44.72 w/w % PEG 300, and 34.38 w/w % of a sodium salt of a compound of Formula (Ia) was prepared. […]

## CC(C)(C#Cc1ccc(-c2ccc(Cl)c3c(NS(C)(=O)=O)nn(CC(F)(F)F)c23)c([C@H](Cc2cc(F)cc(F)c2)NC(=O)Cn2nc(C(F)(F)F)c3c2C(F)(F)[C@@H]2C[C@H]32)n1)S(C)(=O)=O [compound of Formula (Ia)]
1.00 h, solution S, 500 mg/mL
  Plasma concentration: 37.7 nM and 33.8 nM and 76.1 nM
1.00 h, solution T, 400 mg/mL
  Plasma concentration: 32.9 nM and 54.4 nM and 38.0 nM and 67.5 nM and 89.1 nM
1.00 h, solution U, 500 mg/mL
  Plasma concentration: 53.6 nM and 48.0 nM and 66.8 nM and 41.7 nM
1.00 h, solution V, 300 mg/mL
  Plasma concentration: 48.4 nM and 54.4 nM
3.00 h, solution T, 400 mg/mL
  Plasma concentration: 113 nM and 129 nM and 156 nM and 149 nM
3.00 h, solution U, 500 mg/mL
  Plasma concentration: 123 nM and 74.2 nM and 81.3 nM and 164 nM and 108 nM
3.00 h, solution V, 300 mg/mL
  Plasma concentration: 109 nM and 97.1 nM
8.00 h, solution T, 400 mg/mL
  Plasma concentration: 173 nM and 232 nM and 171 nM and 185 nM
8.00 h, solution U, 500 mg/mL
  Plasma concentration: 106 nM and 107 nM and 168 nM and 154 nM
8.00 h, solution V, 300 mg/mL
  Plasma concentration: 142 nM and 153 nM
24.0 h, solution T, 400 mg/mL
  Plasma concentration: 548 nM and 250 nM and 444 nM and 233 nM and 221 nM
24.0 h, solution U, 500 mg/mL
  Plasma concentration: 178 nM and 196 nM and 214 nM and 230 nM
24.0 h, solution V, 300 mg/mL
  Plasma concentration: 169 nM and 189 nM
48.0 h, solution T, 400 mg/mL
  Plasma concentration: 562 nM and 212 nM and 398 nM and 172 nM and 190 nM
48.0 h, solution U, 500 mg/mL
  Plasma concentration: 279 nM and 172 nM and 138 nM and 218 nM and 246 nM
48.0 h, solution V, 300 mg/mL
  Plasma concentration: 138 nM and 187 nM
72.0 h, solution T, 400 mg/mL
  Plasma concentration: 204 nM and 319 nM and 181 nM and 178 nM
72.0 h, solution U, 500 mg/mL
  Plasma concentration: 298 nM and 157 nM and 138 nM and 181 nM and 210 nM
72.0 h, solution V, 300 mg/mL
  Plasma concentration: 116 nM and 142 nM
96.0 h, solution T, 400 mg/mL
  Plasma concentration: 366 nM and 228 nM and 294 nM and 177 nM and 134 nM
96.0 h, solution U, 500 mg/mL
  Plasma concentration: 137 nM and 130 nM and 169 nM and 170 nM
96.0 h, solution V, 300 mg/mL
  Plasma concentration: 90.1 nM and 155 nM
168 h, solution T, 400 mg/mL
  Plasma concentration: 214 nM and 231 nM and 203 nM and 125 nM and 89.9 nM
168 h, solution U, 500 mg/mL
  Plasma concentration: 195 nM and 139 nM and 75.3 nM and 187 nM and 175 nM
168 h, solution V, 300 mg/mL
  Plasma concentration: 80.1 nM and 132 nM
336 h, solution T, 400 mg/mL
  Plasma concentration: 205 nM and 529 nM and 195 nM and 241 nM and 102 nM
336 h, solution U, 500 mg/mL
  Plasma concentration: 185 nM and 211 nM and 63.2 nM and 474 nM and 285 nM
336 h, solution V, 300 mg/mL
  Plasma concentration: 170 nM and 238 nM
504 h, solution T, 400 mg/mL
  Plasma concentration: 168 nM and 627 nM and 178 nM and 345 nM and 187 nM
504 h, solution U, 500 mg/mL
  Plasma concentration: 231 nM and 288 nM and 96.8 nM and 592 nM and 307 nM
504 h, solution V, 300 mg/mL
  Plasma concentration: 210 nM and 343 nM
672 h, solution T, 400 mg/mL
  Plasma concentration: 123 nM and 603 nM and 149 nM and 387 nM and 229 nM
672 h, solution U, 500 mg/mL
  Plasma concentration: 203 nM and 256 nM and 114 nM and 614 nM and 292 nM
672 h, solution V, 300 mg/mL
  Plasma concentration: 275 nM and 375 nM
840 h, solution T, 400 mg/mL
  Plasma concentration: 101 nM and 441 nM and 93.2 nM and 251 nM and 189 nM
840 h, solution U, 500 mg/mL
  Plasma concentration: 132 nM and 316 nM and 171 nM and 431 nM and 254 nM
840 h, solution V, 300 mg/mL
  Plasma concentration: 278 nM and 362 nM
1008 h, solution T, 400 mg/mL
  Plasma concentration: 69.5 nM and 426 nM and 77.2 nM and 230 nM and 231 nM
1008 h, solution U, 500 mg/mL
  Plasma concentration: 118 nM and 358 nM and 230 nM and 419 nM and 295 nM
1008 h, solution V, 300 mg/mL
  Plasma concentration: 221 nM and 126 nM and 427 nM
1344 h, solution T, 400 mg/mL
  Plasma concentration: 74.9 nM and 262 nM and 58.9 nM and 211 nM and 189 nM
1344 h, solution U, 500 mg/mL
  Plasma concentration: 84.8 nM and 256 nM and 231 nM and 289 nM and 270 nM
1344 h, solution V, 300 mg/mL
  Plasma concentration: 282 nM and 350 nM
1680 h, solution T, 400 mg/mL
  Plasma concentration: 161 nM and 52.9 nM and 172 nM and 193 nM
1680 h, solution U, 500 mg/mL
  Plasma concentration: 69.2 nM and 293 nM and 199 nM and 254 nM and 177 nM
1680 h, solution V, 300 mg/mL
  Plasma concentration: 246 nM and 284 nM
2016 h, solution T, 400 mg/mL
  Plasma concentration: 110 nM and 63.7 nM and 194 nM (2×)
2016 h, solution U, 500 mg/mL
  Plasma concentration: 54.7 nM and 255 nM and 177 nM and 212 nM and 171 nM
2016 h, solution V, 300 mg/mL
  Plasma concentration: 191 nM and 213 nM
2352 h, solution T, 400 mg/mL
  Plasma concentration: 90.5 nM and 66.8 nM and 161 nM and 150 nM
2352 h, solution U, 500 mg/mL
  Plasma concentration: 64.0 nM and 171 nM and 207 nM and 223 nM and 168 nM
2352 h, solution V, 300 mg/mL
  Plasma concentration: 176 nM and 197 nM
2688 h, solution T, 400 mg/mL
  Plasma concentration: 49.6 nM and 372 nM and 151 nM and 77.2 nM
2688 h, solution U, 500 mg/mL
  Plasma concentration: 42.3 nM and 142 nM and 125 nM and 115 nM and 118 nM
2688 h, solution V, 300 mg/mL
  Plasma concentration: 155 nM and 156 nM
3024 h, solution S, 500 mg/mL
  Plasma concentration: 116 nM and 81.8 nM
3024 h, solution T, 400 mg/mL
  Plasma concentration: 44.3 nM and 261 nM and 138 nM and 78.8 nM
3024 h, solution U, 500 mg/mL
  Plasma concentration: 39.5 nM and 148 nM and 97.7 nM and 113 nM (2×)
3024 h, solution V, 300 mg/mL
  Plasma concentration: 121 nM and 94.9 nM
3360 h, solution S, 500 mg/mL
  Plasma concentration: 118 nM and 77.5 nM
3360 h, solution T, 400 mg/mL
  Plasma concentration: 38.5 nM and 227 nM and 119 nM and 85.4 nM
3360 h, solution U, 500 mg/mL
  Plasma concentration: 32.2 nM and 135 nM and 79.2 nM and 93.6 nM and 100 nM
3360 h, solution V, 300 mg/mL
  Plasma concentration: 74.6 nM and 76.5 nM
3696 h, solution S, 500 mg/mL
  Plasma concentration: 105 nM and 69.1 nM
3696 h, solution T, 400 mg/mL
  Plasma concentration: 27.1 nM and 126 nM and 72.8 nM and 68.7 nM
3696 h, solution U, 500 mg/mL
  Plasma concentration: 34.7 nM and 98.8 nM and 73.3 nM and 75.1 nM and 70.7 nM
3696 h, solution V, 300 mg/mL
  Plasma concentration: 62.3 nM and 70.7 nM
4032 h, solution S, 500 mg/mL
  Plasma concentration: 133 nM and 78.3 nM
4032 h, solution T, 400 mg/mL
  Plasma concentration: 30.4 nM and 124 nM and 63.6 nM and 68.0 nM
4032 h, solution U, 500 mg/mL
  Plasma concentration: 33.9 nM and 112 nM and 58.5 nM and 61.8 nM and 62.1 nM
4032 h, solution V, 300 mg/mL
  Plasma concentration: 55.8 nM and 44.5 nM
4704 h, solution S, 500 mg/mL
  Plasma concentration: 96.4 nM and 55.2 nM
4704 h, solution T, 400 mg/mL
  Plasma concentration: 15.9 nM and 71.3 nM and 31.7 nM and 58.1 nM
4704 h, solution U, 500 mg/mL
  Plasma concentration: 25.7 nM and 69.8 nM and 30.2 nM and 48.8 nM and 41.2 nM
4704 h, solution V, 300 mg/mL
  Plasma concentration: 31.3 nM and 23.4 nM
5376 h, solution S, 500 mg/mL
  Plasma concentration: 59.7 nM and 78.6 nM and 38.1 nM
5376 h, solution T, 400 mg/mL
  Plasma concentration: 12.7 nM and 57.9 nM and 21.5 nM and 45.6 nM
